In PubChem BioAssay AID1508642 (National Center for Advancing Translational Sciences (NCATS), 2021):
In all, about 43,000 compounds went through this assay and about 200 (0.47%) were called active. Another 12% or so got no clear call; they are omitted. Calls come from the whole dose curve; as a rule, active = well fitted cell-killing curve with a large enough effect; inconclusive = small, poorly fitted or top-dose-only effect, or effect the other way; inactive = flat fitted curve, though single readings scatter. The list shows a part of the results.

assay: Cell viability qHTS assay in S16 Pmp22-F2sN cells; conditions: S16 Pmp22-F2sN Schwann cells viability, CellTiter-Glo, 24 h; series mostly up to 57.5 µM; activity change, negative = cytotoxicity: at the top concentration; note: nearly all actives have a fitted effect of over 65% in size
Method in brief: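 S16 Pmp22-F2sN Schwann cells (500-1,000/well) in phenol-red-free DMEM with 10% FBS received 23 nL compound by pin tool for 24 h at 37 °C. Viability was then read as CellTiter-Glo luminescence after 15 min at room temperature.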
% is set by controls: 0 for no effect and ±100 for the full control effect.

Compound | activity change, negative = cytotoxicity
CCc1ccc(S(=O)(=O)c2nnn3c2nc(Nc2ccc(C)c(Cl)c2)c2sccc23)cc1 | inactive: -1.71%
COCCCn1c(=N)c(C(=O)NCc2ccco2)cc2c(=O)n3cccc(C)c3nc21 | inactive: 5.66%
CCOC(=O)c1c(NC(=O)COc2ccc(Br)cc2)sc2c1CCCC2 | inactive: 2.91%
CC(=O)Nc1cc(C(=O)NCc2ccc(C)cc2)ccc1S(=O)(=O)c1ccc(Cl)cc1 | inactive: -3.03%
CCOC(=O)CN1C(C(=O)c2ccccc2)=C(OC(=O)C(C)(C)C)c2ccccc2S1(=O)=O | inactive: 6.59%
CSc1cccc(NC(=O)Cn2c(=O)n(Cc3ccccc3)c(=O)c3sc4ccccc4c32)c1 | inactive: -2.23%
CCn1c(SCc2cccc(Br)c2)nnc1-c1nonc1NC(C)=O | inactive: -16.8%
CC(C)CNC(=O)C(=O)Nc1c2c(nn1-c1ccccc1)CS(=O)(=O)C2 | inactive: -15%
Cc1ccc(C(=O)N2CCc3cc(CNC(=O)c4ccc(Br)cc4)ccc32)cc1 | inactive: -13.1%
Cc1cccc(NC(=O)c2ccc3c(O)c(S(=O)(=O)c4ccccc4)c(=O)[nH]c3c2)c1C | inactive: 1.35%
O=C(Nc1ccc2nc(SCC(=O)N3CCc4ccccc43)sc2c1)c1cccc(F)c1 | inactive: -3.15%
Cc1ccccc1-c1nc(CS(=O)(=O)CC(=O)NCCc2ccccc2)c(C)o1 | inactive: 21.9%
COc1ccc(S(=O)(=O)N2CCN(Cc3ccc4c(c3)OCO4)CC2)cc1C | inactive: 3.2%
CCOC(=O)c1cnc2c(Cl)cc(Cl)cc2c1Nc1cc(C(=O)O)ccc1C | inactive: -3.4%
Cc1cccc(C)c1NC(=O)C(=O)NCC(c1ccc2c(c1)OCO2)N1CCOCC1 (stereo not drawn) | inactive: -1.61%
COCCNC(=O)CCn1c(=O)c2cc(OC)c(OC)cc2n(CC(=O)Nc2ccccc2C)c1=O | inactive: -13.5%
CS(=O)(=O)NCC(c1ccco1)N1CCN(c2ccc(F)cc2)CC1 (stereo not drawn) | inactive: 0.714%
O=S(=O)(c1ccc(-c2cc(C(F)(F)F)on2)s1)N1CCN(c2ccccc2)CC1 | inactive: 2.51%
Cc1cc(=O)[nH]c2nnc(SCc3c(F)cccc3Cl)n12 | inactive: -4.67%
Cc1c(Cl)cccc1NC(=O)CNS(=O)(=O)c1cccs1 | inactive: -5.23%
Cc1nc2sccn2c(=O)c1S(=O)(=O)Nc1ccc(N2CCOCC2)cc1 | inactive: -5.22%
Cc1ccc(C2CCN(C(=O)Nc3ccc(Cl)cc3)C2)cc1 (stereo not drawn) | inactive: -25.5%
COc1ccc(N(CC(C)C)S(=O)(=O)c2nnc(NC(=O)c3cccs3)s2)cc1 | inactive: 2.69%
CSc1cccc(NC(=O)C2CCN(S(=O)(=O)c3ccc4c(c3)CCCN4C(=O)C3CCC3)CC2)c1 | inactive: -29.9%

Compound | activity change, negative = cytotoxicity
CCOc1ccc2c(c1)sc1nc(=O)n(-c3ccc(Cl)c(Cl)c3)c(=O)n12 | inactive: 11.6%
Cc1ccc(OCc2nc(-c3ccc(C(=O)N4CCN(c5cccc(C(F)(F)F)c5)CC4)cc3)oc2C)cc1 | inactive: -11.8%
CCOC(=O)CCn1cnc2onc(-c3cc(OC)ccc3Cl)c2c1=O | inactive: 9.05%
Cc1cccc(N2CCN(C(=O)c3cnn(-c4ccccc4Cl)c3C3CCN(C(=O)OC(C)(C)C)CC3)CC2C)c1 (stereo not drawn) | inactive: 2.43%
COc1cccc(CNC(=O)c2ccc(CNS(=O)(=O)c3ccc(C)cc3)cc2)c1 | inactive: -1.86%
CCN(c1ccccc1)S(=O)(=O)c1nnc(NC(=O)c2ccccc2)s1 | inactive: -11.9%
Cc1ccc(CNC(=O)Cn2c(=O)ccc3cc(S(=O)(=O)N4CCC(C)CC4)ccc32)cc1 | inactive: -8.06%
COc1ccc(-c2cc(C(=O)NC(C)c3ccccc3)c3cc(C(C)C)ccc3n2)cc1 (stereo not drawn) | inactive: -1.31%
CCOC(=O)c1c(NC(=O)c2cc(OCC)c(OCC)c(OCC)c2)sc2c1CCCCC2 | inactive: 2.97%
CCN(CC)CCNC(=O)C(=O)NCC(c1cccnc1)N1CCN(c2ccc(F)cc2)CC1 (stereo not drawn) | inactive: -24.6%
O=C(Nc1ccccc1C(F)(F)F)c1cc(-c2ccc3c(c2)OCCO3)on1 | inactive: 6.87%
COc1ccc(S(=O)(=O)NCCc2sc(-c3cccnc3)nc2C)c(F)c1 | inactive: 16.5%
CCc1ccc(C2c3c(oc4ccc(F)cc4c3=O)C(=O)N2CCc2ccc(OC)cc2)cc1 (stereo not drawn) | inactive: 9.2%
CC1CCc2c(sc3nnn(CCCCOc4ccc(Cl)cc4)c(=O)c23)C1 (stereo not drawn) | inactive: 11.3%
COc1ccc(CNCCCSc2nnnn2-c2ccccc2)cc1 | inactive: -6.84%
COc1ccc(NC(=O)CSc2oc(-c3ccc(F)cc3)nc2S(=O)(=O)c2ccc(C)cc2)c(OC)c1 | inactive: -26.7%
Cc1sc2c(c1C)c(=O)n(-c1ccc(Cl)cc1)c(=O)n2Cc1cc(=O)n2cc(Br)ccc2n1 | inactive: 10.5%
CCc1cccc(CC)c1NC(=O)C1CCC(CNS(=O)(=O)c2cccc3nsnc23)CC1 (stereo not drawn) | inactive: -5.51%
COc1ccc2cc3cc(C(=O)Nc4cc(C)c(Cl)cc4OC)oc3nc2c1 | inactive: 0.967%
COc1cc(NC(=O)C2CCN(S(=O)(=O)c3ccc4c(c3)CCCC(=O)N4)CC2)cc(OC)c1 | inactive: 14.7%
CCOc1ccccc1NC(=O)CSc1nc2c(sc3ccccc32)c(=O)n1CCCC(=O)NC1CCCC1 | inactive: 0.213%
CCc1ccc(S(=O)(=O)c2nnn3c2nc(N2CCOCC2)c2sccc23)cc1 | inactive: 2.91%
Cc1cc(-c2ccccc2)n2nc(-c3ccc(Cl)cc3)cc2n1 | inactive: 8.03%
Cc1cc(Br)ccc1NC(=O)C1CCCN(S(=O)(=O)c2cccc3nonc23)C1 (stereo not drawn) | inactive: 13.1%

Compound | activity change, negative = cytotoxicity
Cc1ccc(N2CC(c3nc(-c4ccc(Cl)cc4)no3)CC2=O)cc1F (stereo not drawn) | inactive: -0.668%
Cc1cc(N2CCC(C(=O)Nc3ccc(F)cc3C)CC2)n2nc(C)c(-c3ccc(Cl)cc3)c2n1 | inactive: -3.3%
CCc1ccc(NCc2cc3cc4c(cc3n(CC(=O)Nc3ccccc3OC)c2=O)OCCO4)cc1 | inactive: 6.62%
Cc1cc(NC(=O)Nc2nnc(N(C)C3CCCCC3)s2)ccc1Br | inactive: 3.34%
Cc1ccc2oc(C(=O)Nc3ccc(S(=O)(=O)N(C)c4ccccc4)cc3)cc(=O)c2c1 | inactive: 8.19%
Cc1ccc(CNC(=O)C2CCN(S(=O)(=O)c3cccc4nonc34)CC2)cc1 | inactive: -7.46%
Cc1nn(-c2ccccc2)c2c1cc1c(=O)[nH]c(=O)nc-1n2-c1cccc(Cl)c1 | inactive: 3.75%
Cc1cc(=O)c2cc(C(=O)Nc3ccc(C)c(C)c3)ccc2[nH]1 | inactive: 3.95%
COc1cc(Cl)c(C)cc1NC(=O)CSc1nc2c(c(=O)[nH]1)CCC2 | inactive: -3.68%
CCC(Sc1nc2ccncc2[nH]1)C(=O)Nc1cc(Cl)ccc1C (stereo not drawn) | inactive: 0.212%
O=C(c1ccc2c(c1)N(Cc1ccccc1F)C(=O)c1ccccc1S2(=O)=O)N1CCc2ccccc21 | inactive: 14.8%
Cc1cccc(NC(=O)Cn2ncc3c4ccccc4n(Cc4ccccc4)c3c2=O)c1C | inactive: 13.1%
Cc1ccc(S(=O)(=O)CCC(=O)Nc2ccc(OC(F)(F)F)cc2)cc1 | inactive: -17.9%
COc1ccccc1CNC(=O)c1c(O)nc2c(C)cccn2c1=O | inactive: 15.2%
CN(C)CCNC(=O)c1ccc2c(c1)NC(=O)C(CS(=O)(=O)Cc1cccc(Br)c1)N2 (stereo not drawn) | inactive: -0.901%
CC1CCN(S(=O)(=O)c2ccc3c(c2)c(=O)c(C(=O)NCCc2ccccc2)cn3C)CC1 | inactive: 4.71%
COc1ccccc1NC(=O)CCC(=O)N1CC(C)Oc2ccc(C)cc21 (stereo not drawn) | inactive: 0.228%
CCc1ccc(NC(=O)C2CCCN2S(=O)(=O)c2ccc3c(c2)n(C)c(=O)c(=O)n3C)cc1 (stereo not drawn) | inactive: -2.25%
COc1ccccc1CNC(=O)CN(C)c1nn2c(=O)cc(C)nc2s1 | inactive: -2.29%
CC(=O)c1ccc(NC(=O)CSc2nnc3ccc(-c4ccc(Br)cc4)nn23)cc1 | inactive: 0.304%
Cc1sc2ncn(CC(=O)Nc3cccc(C(F)(F)F)c3)c(=O)c2c1S(=O)(=O)N1CCN(C)CC1 | inactive: -3.22%
Cc1ccc(C(=O)c2c(N)c(C(=O)Nc3ccccc3Cl)c3ccccn23)cc1 | inactive: -2.6%
COC(=O)CNC(=O)C1CCN(S(=O)(=O)c2cccc3nsnc23)CC1 | inactive: -0.03%
CCOc1ccc(OCC(=O)NCCS(=O)(=O)N2CCN(c3ccccc3F)CC2)cc1 | inactive: 2.33%

Compound | activity change, negative = cytotoxicity
O=C(CN1C(=O)COc2ccc(Cl)cc21)Nc1cccc(F)c1 | inactive: 2.22%
CCN(CC)c1ccc2cc(-c3nc(-c4cccs4)no3)c(=O)oc2c1 | inactive: 0.0137%
Cc1ccc(-n2c(=O)c3c(cnn3C)n(CC(=O)Nc3ccc(C)cc3C)c2=O)cc1 | inactive: -2%
CC1=C(C(=O)Nc2ccc(C)cc2C)C(c2ccc([N+](=O)[O-])cc2)n2ncc(C(=O)Nc3ccc(F)cc3)c2N1 (stereo not drawn) | inactive: -15.2%
CN(c1ccc(F)cc1)S(=O)(=O)N1CCCC(C(=O)NCc2cccc(Br)c2)C1 (stereo not drawn) | inactive: 15.6%
Cc1c(C(=O)N2CCC(C)CC2)c(S(=O)(=O)NCc2ccc(Cl)cc2)c(C)n1C | inactive: -6.62%
Cc1ccccc1Cc1c(C)nc2nc(SCC(=O)N(C)c3ccccc3)nn2c1C | inactive: -28%
CC(C)c1ccc(NC(=O)Cn2cc(S(=O)(=O)Cc3cccc(Cl)c3)c3ccccc32)cc1 | inactive: 1.43%
COc1ccc(C(=O)Nc2nc3n(n2)C(c2ccccc2)C=C(c2ccccc2)N3)cc1 (stereo not drawn) | inactive: -26.5%
CCOC(=O)c1ccc(NC(=O)C(Cc2ccccc2)N2Cc3ccccc3C2=O)cc1 (stereo not drawn) | inactive: -5.42%
Cc1ccc(-c2nn3c(=O)cc(CN4CCN(C(=O)/C=C/c5ccccc5)CC4)nc3s2)cc1 | inactive: -7.21%
CCc1ccc(-c2cn3c(n2)sc2cc(C(=O)NCCC4=CCCCC4)ccc23)cc1 | inactive: -19%
CCOC(=O)c1ccc(NC(=O)CSc2cn(CC(=O)N3CCCC3)c3ccccc23)cc1 | inactive: -18.8%
CCCOc1ccc(C(=O)Nc2ccc3oc(-c4cccc(Cl)c4Cl)nc3c2)cc1 | inactive: 6.36%
COC(=O)c1ccc2c(c1)N(CC(=O)Nc1ccc(OC)c(Cl)c1)C(=O)c1ccccc1S2 | inactive: 8.82%
Cc1ccc(-n2nc3c(N4CCCC(C(=O)NCc5ccc(Cl)cc5)C4)nnc(C)c3c2C)cc1 (stereo not drawn) | inactive: 8.22%
CC(C)c1ccc(NC(=O)CSc2nc(=O)n(Cc3ccccn3)c3c2CCC3)cc1 | inactive: -1.2%
N#Cc1nc(COc2cccc(Cl)c2)oc1NCCc1ccccc1 | inactive: -21.9%
CCOc1ccccc1C(=O)N(Cc1cc(OC)c(OC)c(OC)c1)c1ccccn1 | inactive: 13%
CCCn1c(SCc2nc(-c3ccccc3OCC)no2)nnc1-c1ccc(Cl)cc1 | inactive: -15%
Cc1ccc(NC(=O)Cn2c(=O)n(Cc3nc(C)no3)c(=O)c3cc4c(cc32)OCO4)c(C)c1 | inactive: -0.514%
